Laboratory results: a compilation of properties of binary mixtures (doi:10.1016/j.jct.2016.09.024)
The densities may have been worked out from excess volumes.

Assay: xn = mol fraction of the nth substance listed
Conditions: 100 kPa

## CCO + CCCC[N+](C)(C)C.O=S(=O)([N-]S(=O)(=O)C(F)(F)F)C(F)(F)F
293.15 K, x1 = 1
  mass density: 789.5 kg/m3
308.15 K, x1 = 1
  mass density: 776.4 kg/m3

## CCO + CCCC[N+](C)(CCCC)CCCC.O=S(=O)([N-]S(=O)(=O)C(F)(F)F)C(F)(F)F
293.15 K, x1 = 1
  mass density: 789.5 kg/m3
298.15 K, x1 = 1
  mass density: 785.2 kg/m3
303.15 K, x1 = 1
  mass density: 780.8 kg/m3

## CCCC[N+](C)(C)C.O=S(=O)([N-]S(=O)(=O)C(F)(F)F)C(F)(F)F + CCO
293.15 K, x1 = 0.01
  mass density: 819.1 kg/m3
293.15 K, x2 = 0.0605
  mass density: 1389.8 kg/m3
293.15 K, x2 = 0.101
  mass density: 1383.8 kg/m3
293.15 K, x2 = 0.3
  mass density: 1348.5 kg/m3
293.15 K, x2 = 0.4096
  mass density: 1322.2 kg/m3
293.15 K, x2 = 0.4998
  mass density: 1294.8 kg/m3
293.15 K, x2 = 0.5996
  mass density: 1255.7 kg/m3
293.15 K, x2 = 0.6504
  mass density: 1231.1 kg/m3
293.15 K, x2 = 0.7
  mass density: 1202.7 kg/m3
293.15 K, x2 = 0.7997
  mass density: 1126.3 kg/m3
293.15 K, x2 = 0.8514
  mass density: 1072 kg/m3
293.15 K, x2 = 0.88
  mass density: 1037.4 kg/m3
293.15 K, x2 = 0.92
  mass density: 973.5 kg/m3
293.15 K, x2 = 0.93
  mass density: 955.4 kg/m3
293.15 K, x2 = 0.94
  mass density: 936.6 kg/m3
293.15 K, x2 = 0.9609
  mass density: 892.4 kg/m3
298.15 K, x2 = 0.0605
  mass density: 1384.6 kg/m3
298.15 K, x2 = 0.101
  mass density: 1379.2 kg/m3
298.15 K, x2 = 0.1991
  mass density: 1363.5 kg/m3
298.15 K, x2 = 0.3
  mass density: 1343.9 kg/m3
298.15 K, x2 = 0.4096
  mass density: 1317.6 kg/m3
298.15 K, x2 = 0.4998
  mass density: 1290.2 kg/m3
298.15 K, x2 = 0.5996
  mass density: 1251.1 kg/m3
298.15 K, x2 = 0.6504
  mass density: 1226.4 kg/m3
298.15 K, x2 = 0.7
  mass density: 1198 kg/m3
298.15 K, x2 = 0.7501
  mass density: 1163.4 kg/m3
298.15 K, x2 = 0.7997
  mass density: 1121.7 kg/m3
298.15 K, x2 = 0.8514
  mass density: 1067.3 kg/m3
298.15 K, x2 = 0.92
  mass density: 969 kg/m3
298.15 K, x2 = 0.93
  mass density: 951.1 kg/m3
298.15 K, x2 = 0.94
  mass density: 931.9 kg/m3
298.15 K, x2 = 0.95
  mass density: 911.3 kg/m3
298.15 K, x2 = 0.9609
  mass density: 888 kg/m3
298.15 K, x2 = 0.97
  mass density: 866.6 kg/m3
298.15 K, x2 = 0.98
  mass density: 841.6 kg/m3
303.15 K, x1 = 0.01
  mass density: 810.4 kg/m3
303.15 K, x2 = 0.0605
  mass density: 1380.2 kg/m3
303.15 K, x2 = 0.101
  mass density: 1374.7 kg/m3
303.15 K, x2 = 0.1991
  mass density: 1359 kg/m3
303.15 K, x2 = 0.4096
  mass density: 1313 kg/m3
303.15 K, x2 = 0.4998
  mass density: 1285.5 kg/m3
303.15 K, x2 = 0.7501
  mass density: 1158.8 kg/m3
303.15 K, x2 = 0.7997
  mass density: 1117.1 kg/m3
303.15 K, x2 = 0.88
  mass density: 1025.9 kg/m3
303.15 K, x2 = 0.92
  mass density: 966.2 kg/m3
303.15 K, x2 = 0.93
  mass density: 946.6 kg/m3
303.15 K, x2 = 0.94
  mass density: 927.3 kg/m3
303.15 K, x2 = 0.95
  mass density: 906.8 kg/m3
303.15 K, x2 = 0.9609
  mass density: 883.5 kg/m3
303.15 K, x2 = 0.98
  mass density: 837.2 kg/m3
308.15 K, x1 = 0.01
  mass density: 805.9 kg/m3
308.15 K, x2 = 0.0605
  mass density: 1375.7 kg/m3
308.15 K, x2 = 0.1991
  mass density: 1354.5 kg/m3
308.15 K, x2 = 0.3
  mass density: 1334.9 kg/m3
308.15 K, x2 = 0.4096
  mass density: 1308.4 kg/m3
308.15 K, x2 = 0.5996
  mass density: 1241.9 kg/m3
308.15 K, x2 = 0.6504
  mass density: 1217.1 kg/m3
308.15 K, x2 = 0.7
  mass density: 1188.7 kg/m3
308.15 K, x2 = 0.7501
  mass density: 1154.1 kg/m3
308.15 K, x2 = 0.7997
  mass density: 1112.4 kg/m3
308.15 K, x2 = 0.8514
  mass density: 1057.9 kg/m3
308.15 K, x2 = 0.88
  mass density: 1021.2 kg/m3
308.15 K, x2 = 0.92
  mass density: 959.7 kg/m3
308.15 K, x2 = 0.93
  mass density: 941.8 kg/m3
308.15 K, x2 = 0.94
  mass density: 922.8 kg/m3
308.15 K, x2 = 0.95
  mass density: 902.3 kg/m3
308.15 K, x2 = 0.9609
  mass density: 879 kg/m3
308.15 K, x2 = 0.97
  mass density: 857.7 kg/m3
308.15 K, x2 = 0.98
  mass density: 832.8 kg/m3

## CCCC[N+](C)(CCCC)CCCC.O=S(=O)([N-]S(=O)(=O)C(F)(F)F)C(F)(F)F + CCO
293.15 K, x2 = 0
  mass density: 1265.3 kg/m3
293.15 K, x2 = 0.0711
  mass density: 1258.9 kg/m3
293.15 K, x2 = 0.2012
  mass density: 1247.4 kg/m3
293.15 K, x2 = 0.3995
  mass density: 1221.1 kg/m3
293.15 K, x2 = 0.6009
  mass density: 1176.4 kg/m3
293.15 K, x2 = 0.7187
  mass density: 1132.3 kg/m3
293.15 K, x2 = 0.8118
  mass density: 1078 kg/m3
293.15 K, x2 = 0.8605
  mass density: 1036 kg/m3
293.15 K, x2 = 0.9076
  mass density: 982.1 kg/m3
293.15 K, x2 = 0.93
  mass density: 948.7 kg/m3
293.15 K, x2 = 0.95
  mass density: 914.3 kg/m3
293.15 K, x2 = 0.9702
  mass density: 870.7 kg/m3
298.15 K, x1 = 0.0149
  mass density: 829.1 kg/m3
298.15 K, x2 = 0
  mass density: 1261.1 kg/m3
298.15 K, x2 = 0.0636
  mass density: 1256 kg/m3
298.15 K, x2 = 0.0711
  mass density: 1256.6 kg/m3
298.15 K, x2 = 0.1235
  mass density: 1250.8 kg/m3
298.15 K, x2 = 0.2012
  mass density: 1243.1 kg/m3
298.15 K, x2 = 0.6009
  mass density: 1172 kg/m3
298.15 K, x2 = 0.7187
  mass density: 1127.8 kg/m3
298.15 K, x2 = 0.8118
  mass density: 1073.7 kg/m3
298.15 K, x2 = 0.9076
  mass density: 977.6 kg/m3
298.15 K, x2 = 0.93
  mass density: 944.2 kg/m3
298.15 K, x2 = 0.96
  mass density: 888.8 kg/m3
303.15 K, x1 = 0.0149
  mass density: 824.8 kg/m3
303.15 K, x2 = 0
  mass density: 1256.9 kg/m3
303.15 K, x2 = 0.0636
  mass density: 1252 kg/m3
303.15 K, x2 = 0.1235
  mass density: 1246.6 kg/m3
303.15 K, x2 = 0.2012
  mass density: 1238.7 kg/m3
303.15 K, x2 = 0.3995
  mass density: 1212.3 kg/m3
303.15 K, x2 = 0.6009
  mass density: 1167.8 kg/m3
303.15 K, x2 = 0.7187
  mass density: 1123.2 kg/m3
303.15 K, x2 = 0.9076
  mass density: 972.7 kg/m3
303.15 K, x2 = 0.9702
  mass density: 861.9 kg/m3
308.15 K, x1 = 0.0149
  mass density: 820.4 kg/m3
308.15 K, x2 = 0.0636
  mass density: 1247.8 kg/m3
308.15 K, x2 = 0.0711
  mass density: 1246.7 kg/m3
308.15 K, x2 = 0.2012
  mass density: 1234.5 kg/m3
308.15 K, x2 = 0.3995
  mass density: 1207.9 kg/m3
308.15 K, x2 = 0.6009
  mass density: 1162.8 kg/m3
308.15 K, x2 = 0.7187
  mass density: 1118.8 kg/m3
308.15 K, x2 = 0.8118
  mass density: 1063.9 kg/m3
308.15 K, x2 = 0.8605
  mass density: 1023 kg/m3
308.15 K, x2 = 0.9076
  mass density: 967.9 kg/m3
308.15 K, x2 = 0.93
  mass density: 935 kg/m3
308.15 K, x2 = 0.95
  mass density: 899.7 kg/m3
308.15 K, x2 = 0.96
  mass density: 880 kg/m3

## C[N+](C)(C)CCO.O=S(=O)([N-]S(=O)(=O)C(F)(F)F)C(F)(F)F + CCO
293.15 K, x2 = 0.7051
  mass density: 1274 kg/m3
293.15 K, x2 = 0.9002
  mass density: 1037.4 kg/m3
293.15 K, x2 = 0.9601
  mass density: 907.2 kg/m3
298.15 K, x2 = 0.7051
  mass density: 1266.4 kg/m3
298.15 K, x2 = 0.801
  mass density: 1174.3 kg/m3
298.15 K, x2 = 0.9002
  mass density: 1029.8 kg/m3
298.15 K, x2 = 0.9601
  mass density: 900.8 kg/m3
303.15 K, x2 = 0.7051
  mass density: 1261.6 kg/m3
303.15 K, x2 = 0.801
  mass density: 1169.1 kg/m3
303.15 K, x2 = 0.9002
  mass density: 1026 kg/m3
303.15 K, x2 = 0.9601
  mass density: 896.3 kg/m3
308.15 K, x2 = 0.7051
  mass density: 1256.8 kg/m3
308.15 K, x2 = 0.801
  mass density: 1164 kg/m3
308.15 K, x2 = 0.9002
  mass density: 1020.1 kg/m3
308.15 K, x2 = 0.9601
  mass density: 891.8 kg/m3

## CCO + C[N+](C)(C)CCO.O=S(=O)([N-]S(=O)(=O)C(F)(F)F)C(F)(F)F
303.15 K, x1 = 1
  mass density: 780.8 kg/m3
308.15 K, x1 = 1
  mass density: 776.4 kg/m3
